From patent US20190233528A1 (published 2019)

Target: T1, recombinant human CD70 (AviTag, polyhistidine tag and chicken tenascin trimerization domain fused to the … (chicken; human, UniProt P10039 110-139, limits assumed)
T1 construct: domain: trimerization domain; Expressed in Expi293, purified by IMAC and SEC; Copies 3 is inferred from the trimerization domain; not shown: AviTag; polyhistidine tag
T1 sequence: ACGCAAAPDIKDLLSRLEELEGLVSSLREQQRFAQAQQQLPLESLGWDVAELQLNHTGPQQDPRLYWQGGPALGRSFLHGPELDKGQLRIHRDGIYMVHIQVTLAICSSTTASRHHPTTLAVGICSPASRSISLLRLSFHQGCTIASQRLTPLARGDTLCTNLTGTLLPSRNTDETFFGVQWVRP
Test: SPR (Biacore 8K, 37 C): CD70 captured via anti-AviTag antibody on C1 chip, scFv-Fc as analyte; 1:1 Langmuir fit
Procedure: The antibody binding kinetics were determined by surface plasmon resonance (Biacore 8K, GE Healthcare Bio-Sciences, Pittsburgh Pa.) at 37° C. in HBS-T+ (0.01 M HEPES pH 7.4, 0.15 M NaCl, 0.05% v/v Tween20, 1 mg/mL BSA). Recombinant human CD70 diluted in HBS-T+ was captured on a C1 chip immobilized with an anti-AviTag™ antibody. Purified anti-CD70 scFv-Fc fusions were serially diluted into HBS-T+, injected at 30 uL/min for 2-4 min, dissociation monitored for 10 min then the surface regenerated with 75 mM phosphoric acid between injections. Buffer cycles were collected for each anti-CD70 scFv-Fc fusion for double-referencing purposes (double-referencing as described in Myszka, D. G. Improving biosensor analysis. J. Mol. Recognit. 12, 279-284 (1999)). Kinetic association rates (kₒₙ) and dissociation rates (koff) were obtained simultaneously by fitting the double-referenced sensorgrams globally to a 1:1 Langmuir with mass transport model using Biacore 8K Evaluation Software (GE Healthcare Bio-Sciences, Pittsburgh Pa.) then used to calculate an equilibrium dissociation constant (KD) from the kinetic rate constants (KD=koff/kₒₙ). The data was fit to a 1:1 steady state affinity model using Biacore 8K Evaluation Software to determine a steady state equilibrium dissociation constant (SS KD) as needed.

Kd: 2.3 nM
koff: 0.000793 s⁻¹
kon: 348000 M⁻¹ s⁻¹
t1/2: 14.6 min
B1: 8F8 anti-CD70 scFv-Fc fusion (Fc fusion)
chain: QVQLQESGPGLVQPSETLSLTCTVSGGSISYYYWSWIRQPPGKGLEWIGNINYMGNTIYNPSLKSRVTISVDTSKDQFSLKLTSVSAADTAVYYCVRAEGSLDAFDFWGQGTLVAVSLGGGGSGGGGSGGGGSGGGGS[gap - about 100 residues]CTFGQGTKLEIK
notes: scFv-Fc expressed in Expi293; not shown: part of the hinge and Fc from a modified human IgG2
